Data on 47 molecules can be found in PubChem BioAssay AID1508623 (National Center for Advancing Translational Sciences (NCATS), 2021).

The campaign covered roughly 48,000 compounds. About 450 (0.94%) were called active. Not shown: some 19% with an inconclusive outcome. The call rests on the fitted dose curve; in most records, active means well fitted inhibition curve with a large enough effect; inconclusive means small, poorly fitted or top-dose-only effect; inactive means no such curve, though single readings can be large or run the other way. The list shows a part of the results.

The assay can be described thus: Primary qHTS for Identification of Small Molecule Inhibitors of Huntingtin Promoter Activity. Further: nearly all actives have a fitted effect of over 50% in size. To be noted: HEK293 HTT promoter firefly luciferase reporter (activity 0% = vehicle and -100% = no light), 24 h; series mostly up to 57.5 µM; activity change, negative = inhibition: at the top concentration. In short, it runs like this: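 Firefly luciferase signal from promoter-reporter HEK293 cells was scaled between vehicle (0%) and zero RLU (-100%). Compounds were tested at final concentrations of up to 57.5 uM over 24 h at 37 degrees C. PTC124 at 50 uM final served as control inhibitor.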
(qHTS replaces the single test concentration by a dilution series.)
On to `CC(C)(C)[N+]([O-])=Cc1ccc(S(=O)(=O)O)cc1S(=O)(=O)O`, for which the “activity change, negative = inhibition” value was inactive: -5.93%.

Consider `CCCCCn1c(=O)[nH]c2cc(C(=O)Nc3cc(OC)cc(OC)c3)ccc2c1=O`, for which the “activity change, negative = inhibition” value was inactive: -21.9%.

As for `Cc1ccc2oc(=O)c3cc(C(=O)N4CCN(c5ccccc5)CC4)sc3c2c1`, the “activity change, negative = inhibition” value was inactive: 5.45%.

For `CN(C)S(=O)(=O)c1ccc2c(c1)N(CC(=O)NCc1ccccc1)C(=O)C1CCCCN21` (configuration not stated), the “activity change, negative = inhibition” value is inactive: -7.57%.

With `O=C(O)Cc1ccc(CCNS(=O)(=O)c2ccc(Cl)cc2)cc1`, the “activity change, negative = inhibition” value is inactive: 3.34%.

For `Cc1ccccc1CCNC(=O)c1ccc2c(c1)c(C)c(C)n2C`, the “activity change, negative = inhibition” value is inactive: 28.9%.

With `CCCCCNC(=O)c1c[nH]c2ccc(S(=O)(=O)N3CCC(C)CC3)cc2c1=O`, the “activity change, negative = inhibition” value was inactive: -13.7%.

For the molecule `CCC1CN(C(=O)NCc2ccc(C)cc2)c2cc(C)ccc2O1` (configuration not stated), the “activity change, negative = inhibition” value was inactive: -11.3%.

For the molecule `Cc1nn(S(=O)(=O)c2ccc(C(C)C)cc2)c(C)c1S(=O)(=O)N1CCCCCC1`, the “activity change, negative = inhibition” value was inactive: -7.35%.

For the molecule `Cc1ccc(NC(=O)CSc2nc3ccccc3nc2Cc2ccccc2F)cc1F`, the “activity change, negative = inhibition” value is inactive: -4.31%.

`COc1ccc(-c2nsc(NC(=O)COc3ccc(C)c(C)c3)n2)cc1`: the “activity change, negative = inhibition” value was inactive: 7.33%.

For the molecule `CCc1ccccc1NC(=O)C1(S(=O)(=O)c2ccc(Cl)cc2)CC1`, the “activity change, negative = inhibition” value was inactive: -11.2%.

In the case of `Cc1ccc(C)c(N2CCN(C(=O)c3cc4ccc5cccnc5c4[nH]3)CC2)c1`, the “activity change, negative = inhibition” value was inactive: -6.26%.

As to `Cc1cc(C)cc(NC(=O)CN2C(=O)CSc3ccc(S(=O)(=O)N(C)C)cc32)c1`, the “activity change, negative = inhibition” value is inactive: -24.8%.

Turning to `CCOC(=O)c1c(C)oc2ncnc(Nc3ccc(F)cc3Cl)c12`, the “activity change, negative = inhibition” value is inactive: -12.3%.

As for `COc1ccc(-c2oc3ncn4nc(-c5cccc(C)c5)nc4c3c2-c2ccc(OC)cc2)cc1`, the “activity change, negative = inhibition” value is inactive: -10.2%.

Consider `Cc1ccc(CN2C(=O)c3ccccc3Sc3ccc(C(=O)NC4CCCCC4)cc32)cc1`, for which the “activity change, negative = inhibition” value was inactive: 44.8%.

In the case of `COc1cc(C(=O)Nc2nnc(S(=O)(=O)N(C)c3ccccc3)s2)cc(OC)c1OC`, the “activity change, negative = inhibition” value is inactive: -7.62%.

In the case of `Cc1ccc(-c2nc3n(n2)C(c2ccccc2C)C=C(c2ccc(Cl)cc2)N3)cc1` (configuration not stated), the “activity change, negative = inhibition” value is inactive: -13.5%.

As for `COc1ccccc1CNC(=O)CS(=O)(=O)c1cccc2nsnc12`, the “activity change, negative = inhibition” value was inactive: -9.46%.

Turning to `COc1ccc(OC)c(NC(=O)CCn2cnnn2)c1`, the “activity change, negative = inhibition” value is inactive: -5.04%.

Take `COc1ccc(CCNC(=O)c2cc(-c3ccc(C)cc3)nc3n[nH]c(-c4ccccc4)c23)cc1OC`: the “activity change, negative = inhibition” value is inactive: -17.4%.

Regarding `COc1ccc(CNC(=O)c2cc3c(=O)[nH]c4ccc(C)cc4c3s2)c(OC)c1`, the “activity change, negative = inhibition” value was inactive: -5.73%.

For `Cc1ccn2c(Nc3ccc(F)cc3)c(-c3ccc(C)o3)nc2c1`, the “activity change, negative = inhibition” value was inactive: -1.68%.

As for `O=C(NC1CC(=O)N(c2ccc(F)cc2)C1)c1cccs1` (configuration not stated), the “activity change, negative = inhibition” value is inactive: 5.05%.

Take `CC(C)OC(=O)C1=CN(C(=O)c2ccc(F)c(F)c2)CC(C)(C)c2c1[nH]c1ccccc21`: the “activity change, negative = inhibition” value was inactive: 10.7%.

Regarding `COC(=O)[C@@H]1CC2=CC(=O)CC[C@]2(C)[C@@]23O[C@@H]2C[C@@]2(C)[C@@H](CC[C@@]24CCC(=O)O4)[C@H]13`, the “activity change, negative = inhibition” value is inactive: 2.57%.

As for `COc1ccc(CNC(=O)C2CCN(c3nc4ccccc4[nH]3)CC2)c(OC)c1`, the “activity change, negative = inhibition” value is inactive: 5.99%.

`CN1CCN(C(c2ccccc2)c2ccccc2)CC1`: the “activity change, negative = inhibition” value was inactive: 0.0625%.

As for `CCCCOc1ccc(OC(=O)c2sc3ncn(Cc4cccc(F)c4)c(=O)c3c2C)cc1`, the “activity change, negative = inhibition” value is inactive: -7.13%.

Regarding `COc1cc2nc(SCc3ccc(Cl)cc3)n3nc(CCn4nc(C)cc4C)nc3c2cc1OC`, the “activity change, negative = inhibition” value was inactive: -4.73%.

Take `CC(=O)c1sc2c(c1C)c(=O)n(-c1ccc(Cl)cc1)c(=O)n2Cc1cc(=O)n2cc(Cl)ccc2n1`: the “activity change, negative = inhibition” value was inactive: -4.93%.

Regarding `Cc1nn(C(=O)c2ccc(Cl)cc2)c(C)c1Sc1ccc(Cl)cc1`, the “activity change, negative = inhibition” value was inactive: -1.36%.

For `NC(=O)c1nnn(Cc2cc(Cl)c(C(=O)c3ccc(Cl)cc3)c(Cl)c2)c1N`, the “activity change, negative = inhibition” value is inactive: 1.93%.

As for `CCCSc1nc2sc3c(c2c(=O)n1-c1ccccc1)CCC(C)C3` (configuration not stated), the “activity change, negative = inhibition” value was inactive: -14.3%.

For `Cc1cc(NC(=O)CSc2nc(-c3ccccc3F)nc3c2c(=O)n(C)c(=O)n3C)no1`, the “activity change, negative = inhibition” value was inactive: -7.56%.

In the case of `Cc1cc(O)c(C(c2ccccc2)N2CCC(C)CC2)c(=O)n1Cc1ccco1` (configuration not stated), the “activity change, negative = inhibition” value was inactive: -12%.

Consider `CC(=O)c1ccc(NC(=O)CSc2nnc3ccc(-c4ccc(F)cc4)nn23)cc1`, for which the “activity change, negative = inhibition” value is inactive: -1.6%.

Regarding `CCN(C(=O)c1sc2nc3n(c(=O)c2c1C)CCCC3)c1ccccc1F`, the “activity change, negative = inhibition” value is inactive: -13.5%.

For `Cc1ccc(CCNC(=O)c2cc(-c3ccccc3)n[nH]2)cc1`, the “activity change, negative = inhibition” value was inactive: -18.6%.

For the molecule `CN(C)c1ccc(C(CNC(=O)c2ccc(C(C)(C)C)cc2)N2CCCC2)cc1` (configuration not stated), the “activity change, negative = inhibition” value is inactive: -12.1%.

As for `COc1ccc(CNC(=O)CCc2c(C)nn(-c3ccc(N4CCOCC4)nn3)c2C)c(OC)c1`, the “activity change, negative = inhibition” value is inactive: -13.6%.

As to `Cc1cn2c(=O)cc(COc3ccc(NC(=O)c4ccc(C(C)(C)C)cc4)cc3)nc2s1`, the “activity change, negative = inhibition” value is inactive: -12.4%.

`Cc1ccc(C)c(NC(=O)c2cnn(-c3ccc(F)cc3F)c2C2CCNCC2)c1`: the “activity change, negative = inhibition” value is inactive: -19.6%.

As to `CCCC12CN3CC(CCC)(CN(C1)C3c1ccc(OCc3ccccc3)cc1)C2=O` (configuration not stated), the “activity change, negative = inhibition” value is inactive: -4.8%.

With `Cc1cccc(C)c1NC(=O)CCSc1nc(-c2ccc3c(c2)OCO3)cc(C(F)(F)F)n1`, the “activity change, negative = inhibition” value is inactive: -5.14%.

Regarding `COc1ccccc1NC(=O)CN(C)S(=O)(=O)c1cccc2cccnc12`, the “activity change, negative = inhibition” value was inactive: -10.2%.
